This is one part of the list.
Tested on: T1, C. trachomatis L2/434/Bu expressing GFP (CTL2-GFP)
T1 construct: L2/434/Bu GFP intracellular growth in HeLa cells
Parameters: species or system HeLa; C. trachomatis total inclusion area by high-content imaging, normalised to DMSO
Details: total inclusion area; 28.5 h, 10 µM; inhibitor
Procedure, shortened: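 After bulk GFP and resorufin fluorescence reads, cells were fixed, stained with Hoechst and imaged by high-content microscopy. Inclusion area and number (GFP) stood in for chlamydial growth, nuclei count (Hoechst) for host cell viability. MICs were derived as for the bulk readout.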

SMILES	% of control remaining
Cc1cc(NCn2nnc3ccccc32)ccc1Br [CBK057031]	67.963
Cc1nn(C)c(N2CCNCC2)c1NC(=O)Cc1cn(C)c2ccccc12 [CBK050254T]	98.5044
Cc1ccccc1-c1ccccc1CC1(C(=O)N(C)C)CCN(C(=O)CC(C)(C)C)CC1 [CBK285715]	63.1641
COc1ccc(C(C)NC(=O)c2c3c(nn2C)CCCC3)cc1F (stereo not drawn) [CBK281406]	57.6645
Cc1cc(COc2nccnc2N2CCN(CCCO)CC2)no1 [CBK084197]	92.7126
NC(=O)CSc1nnc(NC(=O)c2ccccc2)s1 [CBK287628]	123.041
CN(C)c1cccc(-c2cccc(NCC(c3cccnc3)N(C)C)n2)c1 (stereo not drawn) [CBK037697]	77.3423
CCCCCNC(=O)C(Cc1ccc(O)c(C(=O)OCc2ccccc2)c1)NC(=O)OC(C)(C)C (stereo not drawn) [CBK001708]	50.6076
CCOC(=O)c1cnc(Nc2nc3ccccc3o2)nc1CN1CCN(c2ccccc2)CC1 [CBK266927]	114.425
COc1ccc(C2CC(=O)C=C(Nc3cc(Cl)ccc3O)C2)cc1 (stereo not drawn) [CBK263542]	22.9139
COc1ccc(Cl)cc1N1CCN(CCO)CC1 [CBK138339]	94.6146
COc1ccc(Oc2cncc(OC3CCN(CC4CC4)C3)n2)cc1OC (stereo not drawn) [CBK084412]	82.3291
Nc1ncc(-c2cccc([N+](=O)[O-])c2)nc1-c1ccc(O)cc1 [CBK122507]	99.3587
COc1ccc(C(=O)OC(C)(C)C)c(-c2nccnc2N[C@@H](C)c2ccccc2)c1 [CBK036994]	78.7806
Cc1nn(C)c(Oc2cccc(C(F)(F)F)c2)c1C(=O)O [CBK000324]	92.47
Cc1cc(=O)n2c3c(cc(S(=O)(=O)NC4CC4)cc13)CC2 [CBK218959]	47.2302
CC(=O)C(CC(=O)O)C1=C(O)CC(C)(C)CC1=O (stereo not drawn) [CBK287127]	89.8384
CC(O)(CC#N)c1ccccc1 (stereo not drawn) [CBK028508]	87.4805
O=C(Cc1ccc(F)cc1)N1CCCC1c1cccc(Cc2ccc(F)cc2)n1 (stereo not drawn) [CBK286234]	124.207
CCOc1ccc(NC(NC(=O)Nc2ccccc2)C(Cl)(Cl)Cl)cc1 (stereo not drawn) [CBK261294]	100.977
Cc1ccc(S(=O)(=O)Nc2ccc(C(=O)Nc3ccc(S(=O)(=O)N4CCCCC4)cc3)cc2)cc1 [CBK269000]	83.9349
Cc1cnn(C(C)C(=O)N2CCc3c(nc(N(C)C)nc3N(C)C)C2)c1 (stereo not drawn) [CBK307556]	68.2495
CCOc1ccccc1NC(=O)c1cc2cccnc2n(Cc2ccc(Cl)cc2)c1=O [CBK294395]	102.492
CCn1c(C(O)c2ccccc2)n[nH]c1=S (stereo not drawn) [CBK015110]	37.5138
Cc1[nH]c2ccccc2c1C(=O)CCC(=O)O [CBK260871]	99.2638
CC(=O)Nc1ccc(S(=O)(=O)Nc2ccc(C(=O)O)cc2)cc1 [CBK050427]	96.2638

SMILES	% of control remaining
COc1cc2c(cc1OC)C(c1ccccc1)N(Cc1ccc(OCCO)cc1)CC2 (stereo not drawn) [CBK286359]	83.6848
CCN(CC)CCC(=O)c1ccc(Cl)cc1 [CBK015906C]	87.1895
Cc1[nH]c2c(C)cccc2c1CC(=O)NC1CCCN(C)C1 (stereo not drawn) [CBK282485]	100.215
O=C(NCc1ccc2occc2c1)c1ccc2[nH]ccc2c1 [CBK149055]	101.907
CC(C)N1CCC(=NNC(=O)c2cc(O)c(O)c(O)c2)CC1 [CBK262626]	105.994
Cc1c(C(=O)N2CCCC2C(N)=O)nnn1Cc1ccc(F)cc1F (stereo not drawn) [CBK305925]	42.4111
Cc1ccccc1Nc1nc(N)nc(CN2CCCC2C(=O)N(C)C)n1 (stereo not drawn) [CBK305638]	77.6024
Cc1ncsc1C(=O)N1CCC2(C/C=C/C[C@H]3COCC[C@H]3NC(=O)[C@@H](CC(C)C)NC2=O)CC1 [CBK292187]	69.7985
O=C(NC(Cc1c[nH]c2ccccc12)C(=O)O)c1ccco1 (stereo not drawn) [CBK217706]	101.125
Cc1nc2ccc(C(=O)NC3CCN(Cc4ccccc4)CC3)cn2c1N(C)C(=O)c1cccs1 [CBK146529]	96.0335
Cc1ccccc1Nc1nc(N)nc(CN2CCOCC2)n1 [CBK305646]	62.9906
CCOC(=O)Cn1c(-c2cccs2)cc2cccnc21 [CBK282267]	79.7409
CO[C@H]1CC[C@H](C(=O)N2C3CCC2CC(O)(c2ccco2)C3)CC1 (stereo partly drawn) [CBK284107]	76.0766
Cc1ccc(-c2csc(NC(=O)c3c(C)noc3C)c2C(=O)NC2CC2)cc1 [CBK268141]	97.1909
CCNC(=O)N(C)c1c(CC)nc2c(OCC3CCCCC3)cccn12 [CBK147795]	73.9503
O=C(NCCCn1cccc1)N1CCN(Cc2ccc(F)cc2)CC1 [CBK306994]	84.0659
CC(C)C(=O)N1CCN(C(=O)Cn2c(-c3ccc(Cl)cc3)n[nH]c2=S)CC1 [CBK297910]	90.1504
COc1ccccc1-c1ccc(NC(=O)c2ccc3c(c2)ncn3C)cc1 [CBK285652]	87.2603
Cc1sc2ccc(-c3ccccc3)cc2[n+]1CCCS(=O)(=O)[O-] [CBK260947]	89.5054
CNc1nc(SCC(=O)Nc2ccc(Cl)c(Cl)c2)nc(N2CCOCC2)n1 [CBK269559]	84.7593
C=CCN(c1ccccc1)S(=O)(=O)c1ccc(Br)cc1CC [CBK038344]	75.9558
CC(Oc1cccc(Cl)c1)C(=O)O/N=C(\N)Cc1cccc2ccccc12 (stereo not drawn) [CBK266033]	126.425
Cc1c(Nc2cnn(C34CC5CC(CC(CC(=O)O)(C5)C3)C4)c(=O)c2Cl)c(=O)n(-c2ccccc2)n1C [CBK268707]	105.262
CN(C)CCN1CCN(c2cccc(-c3ccncc3)n2)CC1 [CBK037029]	121.164
Cc1nc2c(c(=O)[nH]1)CC[C@@H]1CN(C(=O)c3occ4ccccc34)C[C@H]21 [CBK284408]	76.8625
